Measured values: PubChem BioAssay AID493208 (National Center for Advancing Translational Sciences (NCATS), 2011)
About 340 (0.77%) of roughly 44,000 compounds were called active. Another 5% or so got no clear call; they are omitted. Calls come from the whole dose curve; as a rule, active = well fitted inhibition curve with a large enough effect; inconclusive = small, poorly fitted or top-dose-only effect; inactive = flat fitted curve, though single readings scatter. The list shows a part of the results.

assay: Acumen qHTS Assay for Inhibitors of the mTORC1 Signaling Pathway in MEF (Tsc2-/-, p53-/-) Cells: Sytravon; conditions: phospho-rpS6 immunofluorescence/PI, 24 h; series mostly up to 38.3 µM; activity change, negative = inhibition: at the top concentration;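 note: plate controls were DMSO for no effect and rapamycin for full effect; nearly all actives have a fitted effect of over 50% in size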
Summary of the method: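 Tsc2-/-, p53-/- mouse embryonic fibroblasts (empty-vector line) exposed to compound 24 hrs at 37 C, fixed, immunostained for phospho-rpS6 and counterstained with propidium iodide. Acumen laser scanning gives % positive cells from Alexa 488/PI ratio, thresholded using 7.5 nM rapamycin; PI count gives viability.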

Compound	activity change, negative = inhibition
Cc1nn2c(=O)cc(COC(=O)Cc3ccccc3)nc2s1	inactive: -5.53%
Nc1c(C(=O)Nc2ccc(OC(F)(F)F)cc2)sc2nc(-c3ccncc3)ccc12	inactive: 7.2%
CCC1CN(C(=O)N2CCC(C(=O)Nc3ccccc3F)CC2)c2ccccc2O1 (stereo unspecified)	inactive: -2.11%
Cc1ccc(CCNC(=O)c2ccc3c(Cl)c4c(nc3c2)CCCC4)cc1	inactive: -5.56%
CCCC(=O)Nc1ccccc1OCc1cc(=O)n2cc(C)ccc2n1	inactive: 1.3%
Cc1ccc(C)c(N2CCN(c3c(CN4CCCC4)c(=O)oc4ccccc34)CC2)c1	inactive: -1.35%
COc1ccccc1CNC(=O)c1ccc2nc(N3CCCCC3)sc2c1	inactive: 1.5%
COc1ccc(NC(=O)CN2C(=O)COc3ccc(S(=O)(=O)N4CCCCCC4)cc32)cc1	inactive: -4.4%
O=C(Nc1cccc(Cl)c1Cl)c1cc(S(=O)(=O)NCc2ccc3c(c2)OCO3)ccc1F	inactive: 14.8%
Cc1ccc(-n2c(=O)cc(N3CCN(c4ccccc4Cl)CC3)[nH]c2=O)cc1	inactive: 0.925%
COc1cccc(Cn2c(Oc3cc(C)cc(C)c3)nc3c2c(=O)n(C)c(=O)n3C)c1	inactive: -15.6%
COc1ccc(CC(=O)N2CCc3cc(OC)c(OC)cc3C2COc2cc(C)cc(C)c2)cc1OC (stereo unspecified)	inactive: -17%
Cc1nn(S(=O)(=O)c2ccc(Br)cc2)c(C)c1S(=O)(=O)N1CCCCCC1	inactive: 0.789%
Cc1cc(C)cc(NC(=O)CCS(=O)(=O)c2cccc3nsnc23)c1	inactive: -19.6%
CC(=O)c1ccc(NS(=O)(=O)c2cccc(S(=O)(=O)c3ccc(Cl)cc3)c2)cc1	inactive: 10.7%
CCOc1ccc(CCNC(=O)CN2CCN(Cc3ccc(Cl)cc3)C2=O)cc1OCC	inactive: -12.5%
CCc1ccc(N(CC)C(=O)c2cc3c(=O)oc4ccc(C)cc4c3s2)cc1	inactive: 1.67%
COc1cccc(NC(=O)C(=O)NCC(c2ccc3c(c2)OCO3)N2CCN(C)CC2)c1 (stereo unspecified)	inactive: -16.8%
Cc1cccc(C)c1Nc1nn2c(=O)c3cc4c(cc3nc2s1)OCO4	inactive: -26.4%
COc1ccc(NC(=O)CCCSc2nc(-c3ccco3)cc(C(F)(F)F)n2)cc1OC	inactive: -0.382%
CCCCN(CC)CCCNC(=O)c1cc2c(=O)[nH]c3ccccc3c2n1C	inactive: -17.2%

Compound	activity change, negative = inhibition
COc1cccc(C(=O)Nc2cccc(OCc3cc(=O)n4c5c(sc4n3)CCCC5)c2)c1	inactive: -7.69%
CC(=O)Nc1ccc(NS(=O)(=O)c2c(C(=O)N3CCC(C)CC3)c(C)n(C)c2C)cc1	inactive: 0%
CCc1ccc(-c2cn3c(n2)sc2cc(C(=O)NC4CCCCC4)ccc23)cc1	inactive: 7.06%
COc1cccc(-c2nc(S(=O)(=O)c3ccc(Cl)cc3)c(NCc3ccccc3)o2)c1	inactive: -17.4%
COc1ccc2oc(=O)c(C(=O)NCCc3c(C)[nH]c4ccc(F)cc34)cc2c1	inactive: -2.97%
COCCNc1oc(-c2ccccc2)nc1S(=O)(=O)c1ccc(Br)cc1	inactive: 9.91%
COc1ccc2sc(N(Cc3cccnc3)C(=O)c3ccc4c(c3)OCCO4)nc2c1	inactive: -19.8%
O=C(Nc1ccc(F)c(Cl)c1)N1CC=C(c2c[nH]c3ccccc23)CC1	inactive: -23.1%
CC(C)CCNC(=O)c1cc2cc(S(=O)(=O)N3CCCCC3)ccc2n1C	inactive: 1.44%
CCC(=O)N1c2ccccc2CC1C(=O)NCCc1ccccc1 (stereo unspecified)	inactive: 7.68%
Cc1ccc(N2CCN(C(=O)c3cnc(N4CCCCC4)c4ccccc34)CC2)c(C)c1	inactive: -17.3%
CSc1ncc(Cl)c(C(=O)Nc2c(C(=O)Nc3cccc(Cl)c3)oc3ccccc23)n1	inactive: 4.22%
CCC(=O)Nc1ccccc1-c1nc2ccccc2n(CC(=O)c2ccc(C)cc2)c1=O	inactive: -18%
COc1cccc(Cn2nnc3c(=O)[nH]c(C4CCN(C(=O)c5ccccc5Cl)CC4)nc32)c1	inactive: 3.33%
CC1=C(C(N)=O)C(c2ccccc2Br)n2ncnc2N1 (stereo unspecified)	inactive: 0.983%
O=C(NCc1ccccc1Br)c1cnc2sc(N3CCCCCC3)nn2c1=O	inactive: 3.37%
COc1cc(OC)c(NC(=O)CCCn2nc(C)c3c(C)n(-c4ccccc4)nc3c2=O)cc1Cl	inactive: -3.82%
COc1ccc(-n2nc(C(=O)N3CCCC(C)C3)c3c4ccccc4n(C)c3c2=O)cc1Cl (stereo unspecified)	inactive: -11.8%
CCN(CC)c1nc2ccccc2nc1C(=O)Nc1cc(OC)c(OC)c(OC)c1	inactive: -0.408%
O=C(NC1CC(=O)N(c2ccccc2)C1)c1ccc(S(=O)(=O)N2CCCCC2)cc1 (stereo unspecified)	inactive: -3.54%
Cc1nn(C(=O)c2ccc(Cl)cc2)c(C)c1S(=O)(=O)N1CCCCCC1	inactive: 0.587%

Compound	activity change, negative = inhibition
Cc1nn2c(C)c(C(=O)NCc3ccco3)cnc2c1-c1ccccc1	inactive: -9.17%
Cc1ccc(N2CCn3c2nc2c3c(=O)n(CCCc3ccccc3)c(=O)n2C)cc1C	inactive: 5.55%
O=c1[nH]c(=O)n(C2CCCCC2)c(O)c1C1=Nc2ccccc2SC(c2ccccc2)C1 (stereo unspecified)	inactive: -15.8%
COc1ccc(OCC(=O)NCC(c2ccc(OC)cc2)N2CCCCC2)cc1 (stereo unspecified)	inactive: -2.64%
COc1ccc(C2C(C(=O)Nc3cccnc3)=C(C)Nc3nc(-c4ccccc4)nn32)cc1OC (stereo unspecified)	inactive: -4.26%
COc1ccccc1NC(=O)C1=C(C)Nc2nc(SCc3ccccc3Cl)nn2C1c1ccccn1 (stereo unspecified)	inactive: -2.99%
CN(C)c1ccc(/C=C/c2noc(-c3ccccc3O)n2)cc1	inactive: -4.07%
CSc1ccc(CCNS(=O)(=O)c2ccc3c(c2)C(C)(C)C(=O)N3C)cc1	inactive: 10%
O=c1c2ccccc2n2c(-c3ccc(Cl)cc3)nnc2n1CCc1ccccc1	inactive: -2.39%
Cc1ccc(C(c2cccc(Br)c2)c2c(C)[nH]c3ccccc23)s1 (stereo unspecified)	inactive: -23.1%
COc1cc(OC)cc(C(=O)N2CCN(C(=O)COc3ccccc3)CC2)c1	inactive: 7.74%
CC(C)c1ccc(NC(=O)C(C)N(c2ccccc2)S(C)(=O)=O)cc1 (stereo unspecified)	inactive: 4.03%
CC(C)C(NS(=O)(=O)c1ccc2c(c1)oc(=O)n2C)C(=O)NCCc1ccccc1 (stereo unspecified)	inactive: -0.586%
COCCCNc1nc(NCc2cccc(Cl)c2)c2cnn(C)c2n1	inactive: 10.6%
COc1ccc(-c2nc(CSc3nnc(C)n4c3cc3occc34)c(C)o2)cc1OC	inactive: 2.1%
CCc1ccc(-n2nc(C)c3c(C)cc(=O)n(CC(=O)Nc4ccc(C(C)=O)cc4)c32)cc1	inactive: 6.82%
O=C(Cn1ncc2c3ccccc3n(Cc3ccc(F)cc3)c2c1=O)NCCC1=CCCCC1	inactive: -0.0438%
Cc1nn(C(=O)c2ccc(Cl)cc2)c(C)c1S(=O)(=O)N1CCOCC1	inactive: -2.56%
Cc1c(C(=O)Nc2ccc(C(C)C)cc2)sc2nc3n(c(=O)c12)CCC3	inactive: 0%
